# Results reported in PubChem BioAssay AID485294 (National Center for Advancing Translational Sciences (NCATS), 2010).
# Screen size: about 370,000 compounds; about 150 (0.041%) were called active. Inconclusive results, whose numbers are uncertain, are shown with a selection of clear calls. Calls follow the shape of the dose curve; as a rule, active = well fitted inhibition curve with a large enough effect; inconclusive = small, poorly fitted or top-dose-only effect; inactive = flat fitted curve, though single readings scatter. No potency is given beside an inconclusive call; the fits are too rough.
# Biological target: Beta-lactamase (Escherichia coli (strain K12)) (UniProt P00811)
# Sequence of UniProt P00811 (P00811 whole entry, looked up): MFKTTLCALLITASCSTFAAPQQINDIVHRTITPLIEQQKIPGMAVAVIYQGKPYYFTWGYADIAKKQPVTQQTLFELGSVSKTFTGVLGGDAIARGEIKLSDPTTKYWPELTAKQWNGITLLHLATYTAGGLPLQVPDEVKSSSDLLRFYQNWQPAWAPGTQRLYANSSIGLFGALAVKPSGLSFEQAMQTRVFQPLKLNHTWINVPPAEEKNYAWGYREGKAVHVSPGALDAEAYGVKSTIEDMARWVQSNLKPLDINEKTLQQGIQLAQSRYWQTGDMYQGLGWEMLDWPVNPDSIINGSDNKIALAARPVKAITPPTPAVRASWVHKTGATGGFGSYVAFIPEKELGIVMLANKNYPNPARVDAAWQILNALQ
# Experiment: qHTS Inhibitors of AmpC Beta-Lactamase (assay with detergent); also: nearly all actives have a fitted effect of over 25% in size
# Conditions: AmpC hydrolysis of nitrocefin, absorbance 480 nm, 0.01% Triton; series mostly up to 114 µM
# Outline: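 20 mM phosphate pH 7.0 + 0.01% (detergent screen) or 0.0001% Triton X-100; 5.3 nM AmpC reagent; cpd preinc 15 min RT; nitrocefin (800 uM stock) to start; A480 q20 s × 4 min; Activity was normalised to no-enzyme and no-compound control wells.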
# Potency is read from the fitted curve at half-maximal effect; tags tell the direction and shape of the fitted curve.
row,SMILES,Potency
1,COc1cc(C(c2c(C)[nH][nH]c2=O)c2c(C)[nH][nH]c2=O)ccc1OC(=O)c1cccc(C)c1,inactive
2,Clc1ccc(OCC#CCN2CCCCCC2)cc1,"inconclusive [inhibitor, partial curve, poor fit]"
3,O=[N+]([O-])c1ccc(/C=N/NC(=S)Nc2ccc(Cl)cc2Cl)s1,inactive
4,Brc1ccc(CN2CCN(Cc3c[nH]c4ccccc34)CC2)cc1,"inconclusive [inhibitor, partial curve, poor fit]"
5,Cc1onc(-c2ccccc2)c1C(=O)OCCOc1cccc(Cl)c1,"inconclusive [inhibitor, partial curve, poor fit]"
6,O=C(CCC(=O)N1CCOc2ccc(Cl)cc21)NCc1ccccc1,"inconclusive [inhibitor, full curve, poor fit]"
7,COCCCNCCOCCOc1ccc(Cl)cc1C(C)(C)C,"inconclusive [inhibitor, single point]"
8,Nc1ccc(N2CCCCC2)c2nonc12,inactive
9,O=C(CSc1nc2c(c(=O)[nH]1)CCC2)Nc1ccccc1C(F)(F)F,inactive
10,COc1ccc(S(=O)(=O)NCc2ccccc2)cc1Br,"inconclusive [inhibitor, full curve, poor fit]"
11,COc1ccc(OC)c(-c2cn(S(=O)(=O)c3ccccc3)nc2N)c1,"inconclusive [inhibitor, partial curve]"
12,O=C(O)c1cn(Cc2ccccn2)c(=O)c2ccccc12,"inconclusive [inhibitor, full curve, poor fit]"
13,COc1ccc(C(=O)Nc2ccc(-c3nnn(CC(=O)NCc4ccco4)n3)cc2)cc1,"inconclusive [inhibitor, single point]"
14,O=C(O)CN1C(=O)CC(Cc2ccccc2)C1=O (stereo not drawn),"inconclusive [inhibitor, full curve, poor fit]"
15,CC(C)C(NC(=O)CN1C(=O)c2ccccc2C1=O)c1ccccc1 (stereo not drawn),"inconclusive [inhibitor, full curve, poor fit]"
16,O=C(O)CC(SCc1ccc(C(=O)O)o1)C(=O)O (stereo not drawn),"inconclusive [inhibitor, partial curve, poor fit]"
17,O=c1c(-c2ccc(Cl)cc2)c(C(F)(F)F)oc2c(CN3CCCCC3)c(O)ccc12,inactive
18,Cc1c2c(nc3c(C(=O)NC4CC4)cnn13)CCCC2,inactive
19,CC(C)C(=O)Nc1ccc(S(=O)(=O)Nc2nccc(/C=C/c3ccccc3)n2)cc1,"inconclusive [inhibitor, single point]"
20,CCN(C(=O)COC(=O)c1ccc(O)cc1O)c1c(N)n(Cc2ccccc2)c(=O)[nH]c1=O,"inconclusive [inhibitor, full curve, poor fit]"
21,Cc1onc(-c2c(F)cccc2Cl)c1C(=O)ONC(=O)c1ccccc1,"inconclusive [inhibitor, full curve, poor fit]"
22,CN(C)C1(CNC(=O)CC(NC(=O)c2ccccc2Cl)c2ccccc2)CCCCC1 (stereo not drawn),"inconclusive [inhibitor, single point]"

row,SMILES,Potency
1,COC(=O)Nc1nc2c(s1)CCCC2,"inconclusive [inhibitor, single point]"
2,CCOc1ccc(CCNC(=O)c2cc3c(s2)-c2ccccc2OC3)cc1OCC,inactive
3,COc1ccc(CCNC(=O)c2ccc3nc(N4CCOCC4)sc3c2)cc1OC,inactive
4,COC(=O)C1CCCN1C(=O)COc1ccc(Br)cc1Cl (stereo not drawn),"inconclusive [inhibitor, full curve, poor fit]"
5,Cc1ccc(-n2c(C)nn(CC3CC3)c2=O)cc1,"inconclusive [inhibitor, full curve, poor fit]"
6,COC(=O)c1cc(Br)c(=O)n(CCN2CCCC2)c1,"inconclusive [inhibitor, full curve, poor fit]"
7,O=C(Nc1ccon1)c1ccccc1Cl,"inconclusive [inhibitor, full curve, poor fit]"
8,O=C(c1nn2c(C(F)(F)F)cc(-c3ccco3)nc2c1Br)N1CCCc2ccccc21,"inconclusive [inhibitor, full curve]"
9,O=C(COC(=O)c1ccc[nH]c1=O)Nc1cc(S(=O)(=O)N2CCCCCC2)ccc1Cl,inactive
10,C=C1SC(=Nc2c(C)cccc2Cl)N(C(=O)c2sc3ccccc3c2Cl)C12CCCCC2,inactive
11,CCOc1ccc(-c2nnc3ccc(SCC(=O)NCc4ccco4)nn23)cc1,inactive
12,Cc1ccc(CNC(=O)C2CCN(S(=O)(=O)c3cc(-c4noc(C)n4)ccc3C)CC2)cc1,inactive
13,O=[N+]([O-])c1cc(C(F)(F)F)cc([N+](=O)[O-])c1NCc1cccnc1,inactive
14,COc1cccc(OC)c1OCC(O)CN1CCN(c2ccccc2)CC1 (stereo not drawn),"inconclusive [inhibitor, single point]"
15,CN(C)S(=O)(=O)c1ccc(C(=O)NCc2nnc(SCC(=O)Nc3ccc(F)cc3)n2-c2ccc(F)cc2)cc1,"inconclusive [inhibitor, full curve]"
16,O=C(NC1CC2CCC(C1)N2Cc1ccccc1)c1cccc(F)c1 (stereo not drawn),"inconclusive [inhibitor, full curve, poor fit]"
17,CCOC(=O)c1ccc(NC(=S)Nc2ccc(C)cc2)cc1,inactive
18,Cc1ccc(S(=O)(=O)N2CCN(C(=O)COc3ccc(Br)cc3)CC2)cc1,"inconclusive [inhibitor, full curve, poor fit]"
19,Cc1ccc(S(=O)(=O)NCCCCCC(=O)Nc2ccccc2)cc1,"inconclusive [inhibitor, full curve, poor fit]"
20,Cc1ccc(CNC(=O)c2ccc(N3CCC4(CC3)CC(c3cccc(Br)c3)=NO4)c([N+](=O)[O-])c2)cc1,"inconclusive [inhibitor, single point]"
21,COc1ccc(C(=O)Nc2cccc(C(=O)O)c2)cc1S(=O)(=O)N1CCCC1,"inconclusive [inhibitor, full curve]"
